Measured values taken from US20250270341A1 (Alector, published 2025).

B1: CD98hc.05.168 (2+1 bispecific antibody) (bispecific antibody)
heavy 1: EVRLLESGGGLVQPGGSLRLSCAASGFTFSNYAMGWVRQAPGKGLEWVSAISGSGGSTYYADSVKGRFTTSRDDSKNALYLQMNSLRAEDTAVYYCARGGPGWYAADVWGQGTTVTVSSASTKGPSVFPLAPSSKSTSGGTAALGCLVKDYFPEPVTVSWNSGALTSGVHTFPAVLQSSGLYSLSSVVTVPSSSLGTQTYICNVNHKPSNTKVDKKV[here human IgG1 Fc with changes without letters]GGGGSGGGGSGGGGSEVQLVESGGGLVKPGGSLKLSCAASGFAFSTYDMSWVRQTPEKRLEWVAYISSGGDTTYYPDTVKGRFTISRDNAKNTLYLQMSSLKSEDSAIYYCARQDYRPYFAYWGQGTLVTVSSGGSEGKSSGSGSESKSTGGSDIVMSQSPSSLAVSVGEKVTVSCKSSQNLLYSSNQKNYLAWYQQKPGQSPKLLIYWASTRESGVPDRFTGSGSGTDFTLTISSVKAEDLAVYYCQQYSYYPPTFGGGTKLEIK
heavy 2: EVRLLESGGGLVQPGGSLRLSCAASGFTFSNYAMGWVRQAPGKGLEWVSAISGSGGSTYYADSVKGRFTTSRDDSKNALYLQMNSLRAEDTAVYYCARGGPGWYAADVWGQGTTVTVSS[here human IgG1 constant region with changes without letters]
light: DIQMTQSPSSLSASVGDRVTITCRASQSISSYLNWYQQKPGKAPKLLIYAASSLQSGVPSRFSGSGSGTDFTLTISSLQPEDFATYYCQQADLPAFAFGGGTKVEIKRTVAAPSVFIFPPSDEQLKSGTASVVCLLNNFYPREAKVQWKVDNALQSGNSQESVTEQDSKDSTYSLSSTLTLSKADYEKHKVYACEVTHQGLSSPVTKSFNRGEC
B2: CD98hc.05.193 (2+1 bispecific antibody) (bispecific antibody)
heavy 1: EVRLLESGGGLVQPGGSLRLSCAASGFTFSNYAMGWVRQAPGKGLEWVSAISGSGGSTYYADSVKGRFTTSRDDSKNALYLQMNSLRAEDTAVYYCARGGPGWYAADVWGQGTTVTVSSASTKGPSVFPLAPSSKSTSGGTAALGCLVKDYFPEPVTVSWNSGALTSGVHTFPAVLQSSGLYSLSSVVTVPSSSLGTQTYICNVNHKPSNTKVDKKV[here human IgG1 Fc with changes without letters]GGGGSGGGGSGGGGSEVQLVESGGGLVQPGGSLKVSCTTSGFTFSDFDMSWIRQTPEKRLEWVAYISSGGGSTYFPDTVKGRFTISRDNAKSTLYLQMSSLKSEDTAMYYCARHVGVRPWFDYWGQGTLVTVSSGGSEGKSSGSGSESKSTGGSDIVMSQSPSSLAVSVGEKVTMTCKSSQSLLYSSNQKNYLAWYQQKPGQSPKLLIYWASTRESGVPDRFTGSGSGTDFTLTISSVKAEDLALYYCQQYHYYPPTFGAGTKLEIK
heavy 2: EVRLLESGGGLVQPGGSLRLSCAASGFTFSNYAMGWVRQAPGKGLEWVSAISGSGGSTYYADSVKGRFTTSRDDSKNALYLQMNSLRAEDTAVYYCARGGPGWYAADVWGQGTTVTVSS[here human IgG1 constant region with changes without letters]
light: B1 light
B3: CD98hc.05.207 (2+1 bispecific antibody) (bispecific antibody)
heavy 1: EVRLLESGGGLVQPGGSLRLSCAASGFTFSNYAMGWVRQAPGKGLEWVSAISGSGGSTYYADSVKGRFTTSRDDSKNALYLQMNSLRAEDTAVYYCARGGPGWYAADVWGQGTTVTVSSASTKGPSVFPLAPSSKSTSGGTAALGCLVKDYFPEPVTVSWNSGALTSGVHTFPAVLQSSGLYSLSSVVTVPSSSLGTQTYICNVNHKPSNTKVDKKV[here human IgG1 Fc with changes without letters]GGGGSGGGGSGGGGSEVQLVESGGGLVKPGGSLKISCAASGFAFSSYDMSWVRQTPEKRLEWVAYISSAGGSTYFPGTVKGRFTISRDNAKNTLYLQMRSLKSEDTAMYYCARHENGHYPFFDFWGQGTTLTVSSGGSEGKSSGSGSESKSTGGSDIVMSQSPSSLAVSVGEKVTLSCKSSQSLFYSGNQKTYLAWYQQKPGQSPKLLIYWTSTRESGVPDRFTGSGSGTDFTLTISSVKAEDLAVYFCQQYYTYPPTFGAGTKLEIK
heavy 2: EVRLLESGGGLVQPGGSLRLSCAASGFTFSNYAMGWVRQAPGKGLEWVSAISGSGGSTYYADSVKGRFTTSRDDSKNALYLQMNSLRAEDTAVYYCARGGPGWYAADVWGQGTTVTVSS[here human IgG1 constant region with changes without letters]
light: B1 light
B4: CD98hc.05.226 (2+1 bispecific antibody) (bispecific antibody)
heavy 1: EVRLLESGGGLVQPGGSLRLSCAASGFTFSNYAMGWVRQAPGKGLEWVSAISGSGGSTYYADSVKGRFTTSRDDSKNALYLQMNSLRAEDTAVYYCARGGPGWYAADVWGQGTTVTVSSASTKGPSVFPLAPSSKSTSGGTAALGCLVKDYFPEPVTVSWNSGALTSGVHTFPAVLQSSGLYSLSSVVTVPSSSLGTQTYICNVNHKPSNTKVDKKV[here human IgG1 Fc with changes without letters]GGGGSGGGGSGGGGSEVQLVESGGGLGKPGGSLKLSCAASGFAFSSYDMSWVRQTPEKRLDWVAYISSGGGGTYYPDTVKGRFTISRDNAKNTLYLQMSSLKSEDTAIYYCARHVGVRPWFGYWGQGTLVTVSSGGSEGKSSGSGSESKSTGGSDIVMSQSPSSLAVSVGEKITMTCKSSQSLLYSGSQKNYLAWYQQKPGQSPKLLIYWASTRESGVPDRFTGSGSGTDFTLTISSVKAEDLAVYYCQQYSYYPPTFGAGTKLEIK
heavy 2: EVRLLESGGGLVQPGGSLRLSCAASGFTFSNYAMGWVRQAPGKGLEWVSAISGSGGSTYYADSVKGRFTTSRDDSKNALYLQMNSLRAEDTAVYYCARGGPGWYAADVWGQGTTVTVSS[here human IgG1 constant region with changes without letters]
light: B1 light

molecular target: T1, huCD98hc ECD Avi-His (human, UniProt P08195 105-529); assay: ELISA, 1-30 ug/mL
T1 construct: biotinylated on the Avi tag where captured on streptavidin; also called Human CD98-AVI-His; Human CD98hc-AVI-His
T1 sequence: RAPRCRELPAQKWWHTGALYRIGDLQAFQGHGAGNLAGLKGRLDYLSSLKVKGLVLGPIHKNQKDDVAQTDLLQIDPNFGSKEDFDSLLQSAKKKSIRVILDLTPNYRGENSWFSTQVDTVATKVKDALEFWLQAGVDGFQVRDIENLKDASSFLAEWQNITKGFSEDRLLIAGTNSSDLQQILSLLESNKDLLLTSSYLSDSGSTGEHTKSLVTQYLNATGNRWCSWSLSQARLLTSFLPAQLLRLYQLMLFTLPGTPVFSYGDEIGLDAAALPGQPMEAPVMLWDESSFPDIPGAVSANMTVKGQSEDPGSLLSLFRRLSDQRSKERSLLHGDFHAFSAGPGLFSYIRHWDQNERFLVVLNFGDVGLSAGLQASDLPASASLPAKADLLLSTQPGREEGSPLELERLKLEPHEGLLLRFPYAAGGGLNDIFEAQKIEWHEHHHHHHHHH

Binder | ELISA ratio to 2nd only
B1 | 28
B2 | 28
B3 | 23
B4 | 25

molecular target: T2, cyno TfR AVI-His (cyno, UniProt H9EXL1 89-760 (rhesus entry)); assay: ELISA, 1-30 ug/mL
T2 construct: control protein

Binder | ELISA ratio to 2nd only
B1 | 1
B2 | 1
B3 | 1
B4 | 1

Molecular target: T3, Cyno CD98hc ECD Avi-His (cynomolgus macaque, UniProt P08195 105-529 (human entry))
T3 construct: biotinylated on the Avi tag where captured on streptavidin; also called Cyno CD98-AVI-His; Cyno CD98hc-AVI-His
T3 chain: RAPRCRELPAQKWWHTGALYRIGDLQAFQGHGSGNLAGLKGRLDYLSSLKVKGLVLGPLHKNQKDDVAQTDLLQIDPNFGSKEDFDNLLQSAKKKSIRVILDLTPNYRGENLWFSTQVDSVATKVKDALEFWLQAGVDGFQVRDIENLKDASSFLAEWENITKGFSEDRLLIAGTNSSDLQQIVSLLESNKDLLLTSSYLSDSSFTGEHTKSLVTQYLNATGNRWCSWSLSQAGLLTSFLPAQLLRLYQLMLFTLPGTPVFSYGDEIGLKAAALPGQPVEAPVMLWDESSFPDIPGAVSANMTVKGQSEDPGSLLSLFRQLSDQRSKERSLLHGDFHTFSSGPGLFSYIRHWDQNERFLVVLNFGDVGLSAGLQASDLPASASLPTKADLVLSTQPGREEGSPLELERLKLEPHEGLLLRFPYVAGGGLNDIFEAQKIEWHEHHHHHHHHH
Assay: ELISA, 1-30 ug/mL

Binder | ELISA ratio to 2nd only
B1 | 9
B2 | 10
B3 | 7
B4 | 6

molecular target: T1, huCD98hc ECD Avi-His; assay: SPR, Carterra LSA, antibody immobilized

Binder | Kd [nM]
B1 | 20
B2 | 11
B3 | 42
B4 | 21

Molecular target: T3, Cyno CD98hc ECD Avi-His
Assay: SPR, Carterra LSA, antibody immobilized

Binder | Kd [nM]
B1 | 100
B2 | 22
B3 | 120
B4 | 61
